Test results: PubChem BioAssay AID1508623 (National Center for Advancing Translational Sciences (NCATS), 2021)
Out of some 48,000 compounds screened, about 450 (0.94%) were called active. Inconclusive results, whose numbers are uncertain, are shown with a selection of clear calls. Calls follow the shape of the dose curve; as a rule, active = well fitted inhibition curve with a large enough effect; inconclusive = small, poorly fitted or top-dose-only effect; inactive = no such curve, though single readings can be large or run the other way. Potencies beside an inconclusive call are fits to weak or partial responses and may not hold up.

experiment: Primary qHTS for Identification of Small Molecule Inhibitors of Huntingtin Promoter Activity; details: HEK293 HTT promoter firefly luciferase reporter (activity 0% = vehicle and -100% = no light), 24 h; series mostly up to 57.5 µM; also: nearly all actives have a fitted effect of over 50% in size
Outline: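 Luminescence was read after Dual-Glo reagent and a 10 min room-temperature incubation. Values were normalized to vehicle (0% activity) and zero RLU (-100% activity). Reporter HEK293 cells had been exposed to compounds (up to 57.5 uM final) for 24 h.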
Potency is read from the fitted curve at half-maximal effect; tags tell the direction and shape of the fitted curve.

Compound | Potency
CCN1C(=O)c2ccccc2Sc2ccc(NC(=O)Nc3ccccc3OC)cc21 | inconclusive: 28.2 µM [inhibitor, partial curve]
COc1cccc(CNc2nccn(-c3cc(C)cc(C)c3)c2=O)c1 | inconclusive: 35.5 µM [inhibitor, single point]
CCCCN(CCCNC(=O)c1ccc(Sc2ccc(Cl)cc2)c(NC(C)=O)c1)c1ccccc1 | inconclusive: 39.8 µM [inhibitor, single point]
Cc1ccc(NC(=O)CSC2=Nc3ccccc3C3=NC(Cc4ccccc4)C(=O)N23)cc1C (configuration not stated) | inconclusive: 31.6 µM [inhibitor, partial curve, poor fit]
Cc1c(Cl)cccc1NC(=O)Cn1cc(C(=O)C2CCCCC2)c2ccccc21 | inconclusive: 10 µM [inhibitor, partial curve, poor fit]
CCSc1ncc(Cl)c(C(=O)Nc2ccc(S(=O)(=O)N3CCC(C)CC3)cc2)n1 | inconclusive: 12.6 µM [inhibitor, partial curve, poor fit]
Cc1ccc(CNC(=O)c2cnc(N3CCCCC3)c3ccccc23)cc1 | inconclusive: 20 µM [inhibitor, partial curve, poor fit]
O=C(c1ccc2c(c1)CCN2S(=O)(=O)c1ccccc1)N1CCN(c2cccc(Cl)c2)CC1 | inconclusive: 39.8 µM [inhibitor, partial curve, poor fit]
Cc1ccc(C)c(OCCn2cc(C(=O)c3cccs3)c3ccccc32)c1 | inconclusive: 28.2 µM [inhibitor, partial curve, poor fit]
Cc1cccc(C(=O)N2CCc3cc(CNC(=O)c4ccc(Br)o4)ccc32)c1 | inconclusive: 31.6 µM [inhibitor, single point]
Cc1ccc(Cl)cc1-n1ncc2c(NC3CCCCC3)ncnc21 | inconclusive: 17.8 µM [inhibitor, partial curve, poor fit]
CCOC(=O)C1CCCN(S(=O)(=O)c2ccc3c(c2)CCN3C(=O)CC)C1 (configuration not stated) | inconclusive: 7.94 µM [inhibitor, full curve, poor fit]
Cc1cccc2sc(N3CCN(C(=O)CS(=O)(=O)c4ccc(F)cc4)CC3)nc12 | inconclusive: 35.5 µM [inhibitor, single point]
CCc1ccc(S(=O)(=O)c2cnc3ccc(OC)cc3c2N2CCCC(C)C2)cc1 (configuration not stated) | inconclusive: 39.8 µM [inhibitor, single point]
CC[C@@H]([C@H](C)O)n1ncn(-c2ccc(N3CCN(c4ccc(OC[C@@H]5CO[C@@](Cn6cncn6)(c6ccc(F)cc6F)C5)cc4)CC3)cc2)c1=O | inactive
CCC1=Nc2cc(C(=O)NCc3ccccc3Cl)ccc2Sc2ccc(C)cc21 | inconclusive: 12.6 µM [inhibitor, partial curve, poor fit]
COc1cccc(C2=C(C(C)=O)Sc3nnc(C4CCCCC4)n3N2C(C)=O)c1 | inconclusive: 39.8 µM [inhibitor, single point]
CCOc1ccc(NC(=O)[C@H]2O[C@@H]3OC(C)(C)O[C@@H]3[C@H]3OC(C)(C)O[C@H]32)cc1 | inconclusive: 25.1 µM [inhibitor, partial curve, poor fit]
CCc1nn(CC(=O)NCc2ccccc2Cl)c(=O)c2cc3ccccc3n12 | inactive

Compound | Potency
CCc1ccc(Oc2c(C(F)(F)F)oc3c(CN4CCN(CC)CC4)c(O)ccc3c2=O)cc1 | inconclusive: 17.8 µM [inhibitor, single point]
CCOC(=O)N1CCc2c(sc3c2c(=O)n(-c2ccc(Cl)cc2)c(=O)n3Cc2cccc(OC)c2)C1 | inconclusive: 7.94 µM [inhibitor, partial curve, poor fit]
COCCCNC(=O)c1ccc(Cn2c(=O)c3ccccc3n(CC(=O)Nc3ccc(C)cc3C)c2=O)cc1 | inactive
Cc1cccc(N2CC(c3nc4ccccc4n3CCC3CCCCC3)CC2=O)c1 (configuration not stated) | inconclusive: 22.4 µM [inhibitor, partial curve]
CCn1c(=O)cc(SCC(=O)NCCc2cccc(C)c2)c2ccccc21 | inactive
COc1ccc(-c2cc(C(C)=O)c(C)n2CCC(=O)Nc2ccc(C)cc2Cl)cc1 | inactive
COC(=O)c1cnn(-c2ccc(C(=O)Nc3ccc(OC(F)(F)F)cc3)cc2)c1N | inconclusive: 14.1 µM [inhibitor, partial curve]
CCc1ccc(NC(=O)CN2CCSc3ccc(S(=O)(=O)N4CCCC4)cc32)cc1 | active: 31.6 µM
COc1ccc(CCNc2nc(-c3ccc(F)cc3)cc(C(F)(F)F)n2)cc1OC | inconclusive: 39.8 µM [inhibitor, single point]
Cc1cccc(Nc2nc(N[C@@H]3CCCC[C@H]3N)ncc2C(N)=O)c1 | inconclusive: 7.69 µM [inhibitor, partial curve]
O=C(Cn1c(-c2cccs2)cc2cc(F)ccc21)NCCCN1CCN(c2ccccc2F)CC1 | inconclusive: 22.4 µM [inhibitor, partial curve, poor fit]
Cc1ccc(F)cc1NC(=O)c1ccc(Cn2nc(N3CCN(c4ccccc4)CC3)ccc2=O)o1 | inconclusive: 20 µM [inhibitor, single point]
CCOc1ccccc1CNC(=O)c1cnc2c(-c3ccc(OCC)c(OCC)c3)c(C)nn2c1C | inconclusive: 11.2 µM [inhibitor, partial curve, poor fit]
Nc1cccc2c(N)cccc12 | inactive
Cc1oc(-c2ccc(C(=O)NCCc3ccc(Cl)cc3)cc2)nc1CSc1ccccc1 | inconclusive: 2.82 µM [inhibitor, full curve]
CNC(=O)c1ccccc1Sc1ccc2c(C=Cc3ccccn3)n[nH]c2c1 | inactive
COCCCNC(=O)c1c(NC(=O)c2cc(=O)c3ccccc3o2)sc2c1CCCC2 | inconclusive: 22.4 µM [inhibitor, partial curve, poor fit]
Cc1ccccc1CN1C(=O)c2ccccc2Sc2ccc(C(=O)OCc3ccco3)cc21 | inconclusive: 35.5 µM [inhibitor, partial curve, poor fit]
CCOC(=O)C1CCC(CN(Cc2c(Cl)cccc2Cl)S(=O)(=O)c2ccc(Cl)cc2)CC1 (configuration not stated) | inconclusive: 39.8 µM [inhibitor, single point]

Compound | Potency
COc1cc(/C=C/c2nc3cc(Cl)ccc3c(=O)n2-c2cccc(C(F)(F)F)c2)cc(OC)c1OC | inconclusive: 39.8 µM [inhibitor, single point]
COc1cc2ncnc(Nc3ccc(F)c(Cl)c3)c2cc1OCCCN1CCOCC1 | inconclusive: 3.52 µM [inhibitor, full curve] and inactive
COc1ccc(Cn2c(SCC(=O)Nc3ccc(OC)cc3)nc3ccccc32)cc1 | inconclusive: 39.8 µM [inhibitor, partial curve, poor fit]
CCOC(=O)c1c(NC(=O)CSc2cn(CCNC(=O)c3ccccc3OC)c3ccccc23)sc2c1CCCC2 | inconclusive: 28.2 µM [inhibitor, partial curve, poor fit]
COc1ccccc1N1CCN(S(=O)(=O)CCNC(=O)COc2ccc(F)cc2)CC1 | inconclusive: 35.5 µM [inhibitor, single point]
C=C(c1ccc(C(=O)O)cc1)c1cc2c(cc1C)C(C)(C)CCC2(C)C | inactive
COc1ccc(CCNc2ncnc3c2c(-c2ccccc2)cn3-c2cccc(Cl)c2)cc1OC | inconclusive: 39.8 µM [inhibitor, single point]
COc1cc(C2C(C(=O)OC(C)C)=C(C)N=C3SCCC(=O)N32)ccc1OCc1ccccc1 (configuration not stated) | inconclusive: 31.6 µM [inhibitor, single point]
COc1ccc(NC(=O)NCc2cccn2Cc2ccc(F)cc2)cc1OC | inconclusive: 25.1 µM [inhibitor, partial curve, poor fit]
COc1cccc(NC(=O)N(Cc2cn(C)c3ccccc23)C2CCCCC2)c1 | inconclusive: 39.8 µM [inhibitor, single point]
COc1ccc(OC)c(NC(=O)c2c(NCc3ccc(C)o3)sc3c2CCCCC3)c1 | inactive
Cc1nc2ccn(Cc3cccnc3)c(=O)c2cc1C(=O)NCc1ccc(Cl)cc1 | inconclusive: 2.82 µM [inhibitor, full curve]
COc1ccccc1CNC(=O)CCCn1nc(C)c2c(C)n(-c3ccc(C)cc3)nc2c1=O | inconclusive: 39.8 µM [inhibitor, single point]
COC(=O)c1c(SC)nc2ccccc2c1OCc1ccc(C)cc1C | inconclusive: 12.6 µM [inhibitor, single point]
Cc1ccc(C)c(-c2nn(CC(=O)Nc3cc(F)ccc3F)c(=O)c3c2CCCC3)c1 | inconclusive: 20 µM [inhibitor, partial curve, poor fit]
CC(CNC(=O)c1ccc(CSc2nc3ccncc3n2Cc2cccc(F)c2)cc1)c1ccccc1 (configuration not stated) | inconclusive: 35.5 µM [inhibitor, single point]
O=C(NCCc1ccccc1)C(=O)NCC(c1cccnc1)N1CCN(c2ccccc2)CC1 (configuration not stated) | inconclusive: 14.1 µM [inhibitor, partial curve]
O=C(Cn1cc(S(=O)(=O)N2CCN(c3ccccc3F)CC2)c2ccccc2c1=O)Nc1cccc(C(F)(F)F)c1 | inconclusive: 28.2 µM [inhibitor, partial curve]
CC(=O)c1ccc(N2CCN(S(=O)(=O)c3cc(-c4onc(C)c4C)ccc3C)CC2)cc1 | inconclusive: 2.82 µM [inhibitor, single point]
